# According to the supplement of paper PMC11348887:
# Structures can show the parent of a compound that is named as a salt. The list shows a part of the results. No stated cut-off is given here; in the data, active = -2 or less and inactive = the rest. Most values come without repeats; read them as rough.
# Test system: hPSC-derived cortical neurons (WA09)
# Test: nuclei number (viability) z-score; higher = more surviving cells
# Conditions: 5 µM; treatment: days 7-14 after plating, readout day 21
# 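Further: nuclei counted from DAPI counterstain by automated high-content image analysis, four fields per well at ×20 in 384-well plates, with sequential b-score then z-score normalization.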
row,SMILES,nuclei number (z-score)
1,CCOC(=O)CCNc1cc(N2CCc3ccccc3CC2)nc(-c2ccccn2)n1,active: -2.01
2,CN(C)CC/C=C1/c2ccccc2Sc2ccc(Cl)cc21 [Chlorprothixene],inactive: 0.203
3,CC(=O)[C@H]1CC[C@H]2[C@@H]3CCC4=CC(=O)CC[C@]4(C)[C@H]3CC[C@]12C [Progesterone],inactive: -0.512
4,Cn1cc(CNCC2CCN(c3ncc(C(=O)NO)cn3)CC2)c2ccccc21,active: -2.81
5,O=C(O)CSc1nnc(Br)n1-c1ccc(C2CC2)c2ccccc12 [Lesinurad],inactive: 0.594
6,CCN(CC)C(=O)c1cccc(C)c1,inactive: -1.13
7,CCCN(CCC)S(=O)(=O)c1ccc(C(=O)O)cc1 [Probenecid],inactive: 0.494
8,CCNC(=O)Nc1ccc(-c2nc3c(c(N4CCOC[C@@H]4C)n2)CCN(C2COC2)C3)cc1,inactive: -1.36
9,C[C@]12CC[C@@H]3c4ccc(O)cc4CC[C@H]3[C@@H]1CC[C@@H]2O [Estradiol],inactive: 0.468
10,CCNC(=O)c1[nH]nc(-c2cc(Cl)c(O)cc2O)c1-c1ccc(OC)cc1,active: -2.04
11,CC(C)c1ccc(NC(=O)Cn2cnc3c2c(=O)n(C)c(=O)n3C)cc1,inactive: 0.349
12,C[C@H](NC(=O)/C(C#N)=C/c1cccc(Br)n1)c1ccccc1,inactive: 0.193
13,CO/N=C(\C(=O)N[C@@H]1C(=O)N2C(C(=O)OCOC(=O)C(C)(C)C)=C(/C=C\c3scnc3C)CS[C@H]12)c1csc(N)n1 [Cefditoren Pivoxil],inactive: 2.85
14,O=C(Nc1ccccc1)c1cc([N+](=O)[O-])ccc1Cl,inactive: -0.0242
15,C=C1C(=O)O[C@@H]2/C=C(\C)CC/C=C(\C)CC[C@@H]12 [Costunolide],inactive: -1.09
16,CCCc1cc(=O)[nH]c(=S)[nH]1 [Propylthiouracil],inactive: -0.179
17,COc1ccc(CCN(C)CCCC(C#N)(c2ccc(OC)c(OC)c2)C(C)C)cc1OC (stereo not given) [Verapamil HCl],inactive: -0.282
18,Cc1onc(-c2ccccc2)c1-c1ccc(S(N)(=O)=O)cc1 [Valdecoxib],inactive: -0.081
19,N[C@@H](CSCCB(O)O)C(=O)O,inactive: 0.132
20,C[C@]12CCC(=O)C=C1CC[C@@H]1[C@@H]2[C@@H](O)C[C@@]2(C)[C@H]1CC[C@]2(O)C(=O)CO [Hydrocortisone],inactive: -0.483
21,C=CC(=O)Nc1cccc(C)c1Nc1ncc2cc(-c3c(Cl)c(OC)cc(OC)c3Cl)ccc2n1,inactive: -0.103
22,COc1cc(-c2cn(C)c(=O)c3cnccc23)cc(OC)c1CN(C)C,inactive: 0.747
23,CCOC(=O)C1=C[C@@H](OC(CC)CC)[C@H](NC(C)=O)[C@@H](N)C1 [Oseltamivir Phosphate],inactive: 2.09
24,C=C[C@]1(C)C[C@@H](OC(=O)CS[C@@H]2C[C@H]3CC[C@@H](C2)N3C)[C@]2(C)[C@H](C)CC[C@]3(CCC(=O)[C@H]32)[C@@H](C)[C@@H]1O [Retapamulin],inactive: 0.0348

row,SMILES,nuclei number (z-score)
1,Oc1ncnc2[nH]ncc12 [Allopurinol],inactive: -0.792
2,CN(N=O)C(=O)NC1C(O)OC(CO)C(O)C1O (stereo not given) [Streptozotocin (STZ)],inactive: -0.385
3,O=C(CCc1ccc(O)cc1)c1c(O)cc(O)cc1O[C@@H]1O[C@H](CO)[C@@H](O)[C@H](O)[C@H]1O [Phlorizin],inactive: 0.118
4,COc1ccccc1C(=O)Nc1cc2c(cc1N1CCCC1)n(C)c(=O)n2C,inactive: 1.68
5,CC1(C)S[C@@H]2[C@H](NC(=O)[C@H](N)c3ccc(O)cc3)C(=O)N2[C@H]1C(=O)O [Amoxicillin Sodium],inactive: 2.39
6,CC1(C)S[C@@H]2[C@H](NC(=O)[C@H](N)c3ccc(O)cc3)C(=O)N2[C@H]1C(=O)O [Amoxicillin],inactive: 1.6
7,Cc1cc(C(=O)NOCCO)c(Nc2ccc(I)cc2F)n(C)c1=O,inactive: -0.131
8,COc1cccc2c1C(=O)c1c(O)c3c(c(O)c1C2=O)C[C@@](O)(C(=O)CO)C[C@@H]3O[C@H]1C[C@H](N)[C@H](O)[C@H](C)O1 [Doxorubicin (Adriamycin)],inactive: -1.83
9,CCC(=O)O[C@@H](O[P@](=O)(CCCCc1ccccc1)CC(=O)N1C[C@H](C2CCCCC2)C[C@H]1C(=O)O)C(C)C [Fosinopril Sodium],inactive: -0.387
10,OCCOCCN1CCN(C2=Nc3ccccc3Sc3ccccc32)CC1 [Quetiapine Fumarate],inactive: 0.0945
11,Cc1nc(Nc2cnn(C3CCNCC3)c2)nc2c1N(C)C(=O)c1cc3ccccc3cc1N2C,inactive: -0.111
12,Cn1nnc(-c2ccc(-c3ccc(N4C[C@H](COP(=O)(O)O)OC4=O)cc3F)cn2)n1 [Tedizolid Phosphate],inactive: -0.0186
13,Nc1nc(Cl)nc2c1ncn2[C@H]1C[C@H](O)[C@@H](CO)O1 [Cladribine],active: -2.84
14,CN[C@@H]1[C@H](O[C@H]2[C@H](O[C@H]3[C@H](O)[C@@H](O)[C@H](N=C(N)N)[C@@H](O)[C@@H]3N=C(N)N)O[C@@H](C)[C@]2(O)C=O)O[C@@H](CO)[C@H](O)[C@H]1O [Streptomycin sulfate],inactive: -0.0128
15,CCCc1cc(-c2nc(-c3ccc(C)cc3)cs2)ccn1 [Fatostatin HBr],inactive: -0.0857
16,O=C(C=Cc1ccccc1)NC(NC(=S)Nc1ccc(Cl)cc1)C(Cl)(Cl)Cl (stereo not given),inactive: 0.542
17,O=C([C@@H](Cc1cccc(C(F)(F)F)c1)NS(=O)(=O)c1cc(F)c2c(c1)CCNC2)N1CCCC1,inactive: 1.77
18,Cc1ccc(Nc2c(F)cccc2Cl)c(CC(=O)O)c1 [Lumiracoxib],inactive: 1.3
19,Fc1ccc(C(c2ccc(F)cc2)N2CCN(C/C=C/c3ccccc3)CC2)cc1 [Flunarizine 2HCl],inactive: -1.31
20,Oc1ccc([C@H]2COc3cc(O)ccc3C2)cc1 [Equol],inactive: -0.0247
21,O=c1cc(-c2cccc3c2Sc2ccccc2S3)oc(N2CCOCC2)c1,inactive: 0.831
22,Cc1[nH]c2ccccc2c1CCNC(=O)c1cccs1,inactive: -0.501
23,N=C(N)c1ccc(OCCCCCOc2ccc(C(=N)N)cc2)cc1 [Pentamidine],active: -7.47
24,Cc1nc2ccc(-n3ncc(C(=O)c4cc5ccccc5[nH]4)c3N)cc2[nH]1,inactive: 1.77

row,SMILES,nuclei number (z-score)
1,CCCCC(=O)O[C@H]1CC[C@H]2[C@@H]3CCc4cc(O)ccc4[C@H]3CC[C@]12C [Estradiol valerate],inactive: 2.57
2,N#Cc1c(O)c2c(-c3ccc(-c4ccccc4O)cc3)csc2[nH]c1=O,inactive: 0.549
3,CC1C(=O)OC2C(O)C34C5CC(C(C)(C)C)C36C(OC(=O)C6O)OC4(C(=O)O5)C12O (stereo not given) [Ginkgolide B],inactive: -0.112
4,C[N+](C)(C)CCCCCC[N+](C)(C)C [Hexamethonium Bromide],inactive: 1.02
5,O=c1ccc2ccc(OCCCCN3CCN(c4cccc5sccc45)CC3)cc2[nH]1 [Brexpiprazole],inactive: -0.314
6,CN(C)/N=N/c1[nH]cnc1C(N)=O [Dacarbazine],inactive: 1.16
7,Cc1cc(NC(=O)Nc2ccc(N(C)C)cc2)c2cc(F)cc(F)c2n1,inactive: -0.0769
8,Cc1onc(-c2c(Cl)cccc2Cl)c1C(=O)N[C@@H]1C(=O)N2[C@@H]1SC(C)(C)[C@@H]2C(=O)O [Dicloxacillin Sodium],inactive: 0.932
9,Cn1cc(-c2ccc3ncc(Cc4ccc5ncccc5c4)n3n2)cn1,inactive: 1.91
10,CCOC(=O)[C@H](CCc1ccccc1)N[C@@H](C)C(=O)N1Cc2ccccc2C[C@H]1C(=O)O [Quinapril HCl],inactive: 0.573
11,CC(CCc1ccccc1)NCC(O)c1ccc(O)c(C(N)=O)c1 (stereo not given) [Labetalol HCl],inactive: 1.81
12,Cc1cn([C@H]2O[C@@H](CO)[C@H](O)[C@H]2F)c(=O)[nH]c1=O [Clevudine],inactive: 0.692
13,O=C(O)c1cccnc1Nc1cccc(C(F)(F)F)c1 [Niflumic acid],inactive: 0.105
14,COc1ccc(C(Cl)=C(c2ccc(OC)cc2)c2ccc(OC)cc2)cc1 [Chlorotrianisene],inactive: 4.31
15,Cc1oncc1C(=O)Nc1ccc(C(F)(F)F)cc1 [Leflunomide],inactive: -0.508
16,CC1CC(OC(=O)C(O)c2ccccc2)CC(C)(C)C1 (stereo not given) [Cyclandelate],inactive: 0.044
17,O=C1[C@H](Cc2ccc(O)cc2)N2C(=O)CCN(C(=O)NCc3ccccc3)[C@H]2CN1Cc1cccc2ccccc12,inactive: 0.509
18,CCn1c2ccccc2c2cc(Nc3ccnc(NCCCN4CCOCC4)n3)ccc21,active: -4.92
19,CC1(C)S[C@@H]2[C@H](NC(=O)[C@H](NC(=O)N3CCNC3=O)c3ccccc3)C(=O)N2[C@H]1C(=O)O [Azlocillin sodium salt],inactive: 0.429
20,COC(=O)Nc1nc2cc(C(=O)c3ccccc3)ccc2[nH]1 [Mebendazole],inactive: 0.0287
21,CC(C)OC(=O)[C@H](C)N[P@](=O)(OC[C@H]1O[C@@H](n2ccc(=O)[nH]c2=O)[C@](C)(F)[C@@H]1O)Oc1ccccc1 [Sofosbuvir (PSI-7977_ GS-7977)],inactive: 1.42
22,Nc1nc2c(ncn2[C@@H]2O[C@H](CO)[C@@H](O)[C@H]2O)c(=O)[nH]1 [Guanosine],inactive: -0.0157
